Test results taken from the supplement of paper PMC6206098.
± gives the uncertainty stated by the source. Shown are siRNA guide strands that differ only in the seed, positions 2 to 7.

Experiments:
[1] = tested on: 3LL; assay: cell viability relative to siNT1 control; higher = less toxic; conditions: concentration: 10 nM; 96 h; Mus musculus;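 note: Luminescence-based viability of cells reverse transfected in 384-well plates with lipid-complexed siRNAs built on a non-toxic 19mer backbone whose passenger strand carries 2′-O-methyl groups at positions 1 and 2, triplicates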
[2] = tested on: H460; assay: cell viability relative to lipid-only control; HeyA8 human ovarian and H460 human lung cancer; M565 mouse liver and 3LL mouse lung cancer; siNT1 is a non-toxic control siRNA; higher = less toxic; conditions: concentration: 10 nM; 96 h; Homo sapiens
[3] = tested on: HeyA8; assay: as above; conditions: concentration: 10 nM; 96 h; Homo sapiens
[4] = tested on: M565; assay: as above; conditions: concentration: 10 nM; 96 h; Mus musculus
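Throughout, for cell viability relative to lipid-only control: reverse lipid transfection in 384-well plates, in triplicate, of duplexes on a non-toxic 19mer backbone with passenger strand 2′-O-methylated at positions 1 and 2, luminescence viability read-out.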

Row | Sequence | cell viability [1] [%] | cell viability [2] [%] | cell viability [3] [%] | cell viability [4] [%]
1 | UUUUUAGACAUGUAAACCAAA | 104 ± 8.9 | 81.2 ± 9.4 | 97.9 ± 9.6 | 79.9 ± 3.9
2 | UUUUUAUACAUGUAAACCAAA | 93 ± 7.7 | 61.4 ± 9.1 | 82.5 ± 16 | 99.8 ± 9.8
3 | UUUUUCAACAUGUAAACCAAA | 101 ± 9.4 | 83.8 ± 7.7 | 84.3 ± 8.6 | 108 ± 16
4 | UUUUUCCACAUGUAAACCAAA | 19.1 ± 0.57 | 45.5 ± 5.1 | 39.5 ± 4.9 | 69.9 ± 2.8
5 | UUUUUCGACAUGUAAACCAAA | 95.1 ± 6 | 62.9 ± 3.6 | 90.3 ± 8.6 | 99.7 ± 13
6 | UUUUUCUACAUGUAAACCAAA | 96.6 ± 6.2 | 64.9 ± 2.1 | 70.9 ± 5.5 | 109 ± 8.4
7 | UUUUUGAACAUGUAAACCAAA | 94.9 ± 8.9 | 70.7 ± 6.7 | 101 ± 11 | 103 ± 20
8 | UUUUUGCACAUGUAAACCAAA | 66.3 ± 6 | 30.4 ± 0.65 | 61.8 ± 14 | 118 ± 20
9 | UUUUUGGACAUGUAAACCAAA | 49.7 ± 3 | 56.7 ± 10 | 98.8 ± 6.5 | 34.5 ± 7.2
10 | UUUUUGUACAUGUAAACCAAA | 56.8 ± 4.8 | 45.2 ± 5.5 | 74.4 ± 12 | 109 ± 15
11 | UUUUUUAACAUGUAAACCAAA | 87.9 ± 6 | 62.3 ± 4.4 | 88.9 ± 5.3 | 101 ± 8.3
12 | UUUUUUCACAUGUAAACCAAA | 93.7 ± 4.9 | 69.1 ± 8.1 | 69.7 ± 8.8 | 126 ± 14
13 | UUUUUUGACAUGUAAACCAAA | 90.5 ± 4.5 | 62.3 ± 8 | 97.8 ± 10 | 98 ± 20
14 | UUUUUUUACAUGUAAACCAAA | 91 ± 8 | 70.6 ± 14 | 80.8 ± 3.2 | 111 ± 18
